Where a name gives a salt, the structure may show the parent alone. About 30 (2%) of roughly 1,500 compounds showed activity.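 The calls were made as follows: active = robust z-score below -2; a few such results were not called.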 Some of the results follow.
What follows are molecules tested on optoTopBP1 Flp-In 293 T-REx (HEK293) cells (assay: light-induced TopBP1 condensate (nuclear foci) count, plate-normalised robust z-score vs non-control wells; higher = more TopBP1 condensates (negative = condensation inhibitor), active = hit call of the paper). Settings: 10 µM; incubation time 2 h.
With `O=c1[nH]c2ccccc2n1CCCN1CCC(n2c(=O)[nH]c3cc(Cl)ccc32)CC1` [Domperidone] the “light-induced TopBP1 condensate (z-score)” value was inactive: 0.475. `C#C[C@]1(O)CC[C@H]2[C@@H]3CCC4=CC(=O)CC[C@]4(C)[C@H]3CC[C@@]21C` [Ethisterone] was tested, and the “light-induced TopBP1 condensate (z-score)” value was inactive: -0.177. For `CC(C)[N+](C)(CCC(C(N)=O)(c1ccccc1)c1ccccc1)C(C)C` [Isopropamide iodide], the “light-induced TopBP1 condensate (z-score)” value was inactive: -0.129. `S=C(NC1CCCCC1)N1CCC(c2cnc[nH]2)CC1` [Thioperamide maleate] was tested, and the “light-induced TopBP1 condensate (z-score)” value was inactive: -0.965. For `CCN(CC)C(=O)N[C@H]1C=C2c3cccc4[nH]cc(c34)C[C@H]2N(C)C1` [Lisuride (S)(-)], the “light-induced TopBP1 condensate (z-score)” value was inactive: -1.23. With `COc1ccc2c(c1)[C@]13CCCC[C@@H]1[C@H](C2)N(C)CC3` [Dextromethorphan hydrobromide monohydrate] the “light-induced TopBP1 condensate (z-score)” value was inactive: 0.251. For `CNCC(O)c1ccc(O)cc1` (racemic) [(+,-)-Synephrine], the “light-induced TopBP1 condensate (z-score)” value was inactive: 0.598. With `C[C@]12CC[C@@H](O)C[C@@H]1CC[C@@H]1[C@@H]2CC[C@]2(C)C(=O)CC[C@@H]12` [Androsterone] the “light-induced TopBP1 condensate (z-score)” value was inactive: 0.981. For `C=CC[C@]1(O)CC[C@H]2[C@@H]3CCC4=CC(=O)CCC4=C3C=C[C@@]21C` [Altrenogest], the “light-induced TopBP1 condensate (z-score)” value was inactive: 0.00418. `C1CCc2nnnn2CC1` [Pentylenetetrazole] was tested, and the “light-induced TopBP1 condensate (z-score)” value was inactive: 0.48. In the case of `CC(Cc1ccc(O)cc1)NCC(O)c1cc(O)cc(O)c1` (configuration not stated) [Fenoterol hydrobromide], the “light-induced TopBP1 condensate (z-score)” value is reported as inactive: -0.538. For `CN1[C@@H]2C[C@@H](OC(=O)[C@H](CO)c3ccccc3)C[C@H]1[C@@H]1O[C@@H]12` [Scopolamine hydrochloride], the “light-induced TopBP1 condensate (z-score)” value was inactive: -0.28. With `C#C[C@]1(O)CC[C@H]2[C@@H]3CCC4=CC(=O)CCC4=C3C=C[C@@]21CC` [Gestrinone] the “light-induced TopBP1 condensate (z-score)” value was inactive: 0.545. For `N[C@@H]1C[C@H]1c1ccccc1` [Tranylcypromine hydrochloride], the “light-induced TopBP1 condensate (z-score)” value was inactive: -0.501. With `NCC(CC(=O)O)c1ccc(Cl)cc1` (racemic) [Baclofen (R,S)] the “light-induced TopBP1 condensate (z-score)” value was inactive: 0.141. For `CN[C@@H]1[C@@H](O)[C@@H](O[C@@H]2[C@@H](O)[C@H](O[C@H]3O[C@H](CN)CC[C@H]3N)[C@@H](N)C[C@H]2N)OC[C@]1(C)O.CN[C@@H]1[C@@H](O)[C@@H](O[C@@H]2[C@@H](O)[C@H](O[C@H]3O[C@H]([C@@H](C)N)CC[C@H]3N)[C@@H](N)C[C@H]2N)OC[C@]1(C)O.CN[C@@H]1[C@@H](O)[C@@H](O[C@@H]2[C@@H](O)[C@H](O[C@H]3O[C@H]([C@@H](C)NC)CC[C@H]3N)[C@@H](N)C[C@H]2N)OC[C@]1(C)O` [Gentamicine sulfate], the “light-induced TopBP1 condensate (z-score)” value was inactive: 0.287. `CN1CCN(C(=O)O[C@H]2c3nccnc3C(=O)N2c2ccc(Cl)cn2)CC1` [Eszopiclone] was tested, and the “light-induced TopBP1 condensate (z-score)” value was inactive: -0.263. In the case of `O=C1CC[C@@]2(O)[C@H]3Cc4ccc(O)c5c4[C@@]2(CCN3CC2CC2)[C@H]1O5` [Naltrexone hydrochloride dihydrate], the “light-induced TopBP1 condensate (z-score)” value is reported as inactive: -0.0285. With `CN1CCC2(C)c3cc(O)ccc3N(C)C12` (single isomer, unassigned; (-)) [(-)-Eseroline fumarate salt] the “light-induced TopBP1 condensate (z-score)” value was inactive: 0.423. For `CC(NC(C)(C)C)C(=O)c1cccc(Cl)c1` (configuration not stated) [Bupropion hydrochloride], the “light-induced TopBP1 condensate (z-score)” value was inactive: -0.842. With `O=c1c2ccccc2[se]n1-c1ccccc1` [Ebselen] the “light-induced TopBP1 condensate (z-score)” value was inactive: -0.415. With `c1ccc2c(c1)Nc1ccccc1S2` [Phenothiazine] the “light-induced TopBP1 condensate (z-score)” value was inactive: -0.856. For `CC(=O)O[C@H]1C[C@@H]2CC[C@@H]3[C@H](CC[C@@]4(C)[C@H]3C[C@H]([N+]3(C)CCCCC3)[C@@H]4OC(C)=O)[C@@]2(C)C[C@@H]1[N+]1(C)CCCCC1` [Pancuronium bromide], the “light-induced TopBP1 condensate (z-score)” value was inactive: 0.347. With `C=CCN1CC[C@]23c4c5ccc(O)c4O[C@H]2C(=O)CC[C@@]3(O)[C@H]1C5` [Naloxone hydrochloride] the “light-induced TopBP1 condensate (z-score)” value was inactive: 0.122. `CCCC(C)C1(CC)C(=O)NC(=O)NC1=O` (configuration not stated) [Pentobarbital] was tested, and the “light-induced TopBP1 condensate (z-score)” value was inactive: -1.22. In the case of `C[C@]12CCC(=O)C=C1C=C[C@@H]1[C@@H]2CC[C@@]2(C)[C@H]1CC[C@@]2(O)CCC(=O)O` [Canrenoic acid potassium salt], the “light-induced TopBP1 condensate (z-score)” value is reported as inactive: 1.33. `Cc1cccc(C)c1NC(=O)CN1CCCC1=O` [Nefiracetam] was tested, and the “light-induced TopBP1 condensate (z-score)” value was inactive: 0.0125. `CC[C@@H](C(=O)[C@@H](C)[C@@H](O)[C@H](C)[C@@H]1O[C@@H]([C@@H](CC)C(=O)O)CC[C@@H]1C)[C@H]1O[C@]2(C=C[C@@H](O)[C@]3(CC[C@@](C)([C@H]4CC[C@](O)(CC)[C@H](C)O4)O3)O2)[C@H](C)C[C@@H]1C` [Salinomycin sodium] was tested, and the “light-induced TopBP1 condensate (z-score)” value was inactive: -1.62. In the case of `C[C@]12CC[C@H](O)C[C@H]1CC[C@@H]1[C@@H]2CC[C@]2(C)[C@@H](C3=CC(=O)OC3)CC[C@]12O` [Digitoxigenin], the “light-induced TopBP1 condensate (z-score)” value is reported as active: -2.06. `CC(C)c1cccc(C(C)C)c1O` [Propofol] was tested, and the “light-induced TopBP1 condensate (z-score)” value was inactive: -0.815. For `Oc1ccc2c3c1O[C@H]1[C@@H](O)CC[C@@]4(O)[C@@H](C2)N(CC2CCC2)CC[C@]314` [Nalbuphine hydrochloride], the “light-induced TopBP1 condensate (z-score)” value was inactive: -0.29. With `O=C(NCNC(=O)NC1C(=O)NC(=O)N1CO)NC1C(=O)NC(=O)N1CO` (configuration not stated) [Imidurea] the “light-induced TopBP1 condensate (z-score)” value was inactive: 1.81. With `CC(=O)O[C@H]1CC[C@@]2(C)C(=CC[C@@H]3[C@@H]2CC[C@]2(C)C(=O)CC[C@@H]32)C1` [Dehydroisoandosterone 3-acetate] the “light-induced TopBP1 condensate (z-score)” value was inactive: -0.674. `CN1C[C@H](CNC(=O)OCc2ccccc2)C[C@@H]2c3cccc4c3c(cn4C)C[C@H]21` [Metergoline] was tested, and the “light-induced TopBP1 condensate (z-score)” value was inactive: 0.379. For `COc1cc2c(c(OC)c1OC)-c1ccc(OC)c(=O)cc1[C@@H](NC(C)=O)CC2` [Colchicine], the “light-induced TopBP1 condensate (z-score)” value was inactive: -1.18. With `C[C@]12CC[C@H](O)CC1=CC[C@@H]1[C@@H]2CC[C@]2(C)C(=O)CC[C@@H]12` [Prasterone] the “light-induced TopBP1 condensate (z-score)” value was inactive: 0.107. `CC[N+]1(C)CCCC(OC(=O)C(O)(c2ccccc2)c2ccccc2)C1` (configuration not stated) [Pipenzolate bromide] was tested, and the “light-induced TopBP1 condensate (z-score)” value was inactive: 0.771. With `c1ccc2c(c1)OCC(C1=NCCN1)O2` (configuration not stated) [Idazoxan hydrochloride] the “light-induced TopBP1 condensate (z-score)” value was inactive: -1.16. In the case of `CCCCCC[C@H]1C(=O)O[C@H](C)[C@H](NC(=O)c2cccc(NC=O)c2O)C(=O)O[C@@H](C)[C@@H]1OC(=O)CC(C)C` [Antimycin A], the “light-induced TopBP1 condensate (z-score)” value is reported as inactive: -0.517. In the case of `Cc1cc(C(C#N)c2ccc(Cl)cc2)c(Cl)cc1NC(=O)c1cc(I)cc(I)c1O` (configuration not stated) [Closantel], the “light-induced TopBP1 condensate (z-score)” value is reported as inactive: 0.371. For `C[C@@H]1C[C@@H]([C@H](O)CC2CC(=O)NC(=O)C2)C(=O)[C@@H](C)C1` [Cycloheximide], the “light-induced TopBP1 condensate (z-score)” value was inactive: -0.598. In the case of `CCC1(C2=NCCN2)Cc2ccccc2O1` (configuration not stated) [Efaroxan hydrochloride], the “light-induced TopBP1 condensate (z-score)” value is reported as inactive: -0.341. In the case of `CC[C@@H](CO)NC(=O)[C@@H]1C=C2c3cccc4[nH]cc(c34)C[C@H]2N(C)C1` [Methylergometrine maleate], the “light-induced TopBP1 condensate (z-score)” value is reported as inactive: 1.36. In the case of `O=c1[nH]oc2c1CCNC2` [THIP Hydrochloride], the “light-induced TopBP1 condensate (z-score)” value is reported as inactive: 2.04. With `CC(N)C(O)c1ccccc1` (configuration not stated) [Phenylpropanolamine hydrochloride] the “light-induced TopBP1 condensate (z-score)” value was inactive: 0.254. With `O=C(CCCN1CCC2(CC1)C(=O)NCN2c1ccccc1)c1ccc(F)cc1` [Spiperone] the “light-induced TopBP1 condensate (z-score)” value was inactive: -0.487. For `O=[N+]([O-])O[C@H]1CO[C@H]2[C@@H]1OC[C@H]2O[N+](=O)[O-]` [Isosorbide dinitrate], the “light-induced TopBP1 condensate (z-score)” value was inactive: -0.205. With `C=C1CC[C@@]2(O)[C@H]3Cc4ccc(O)c5c4[C@@]2(CCN3CC2CC2)[C@H]1O5` [Nalmefene hydrochloride] the “light-induced TopBP1 condensate (z-score)” value was inactive: -0.278. With `NCC1(CC(=O)O)CCCCC1` [Gabapentin] the “light-induced TopBP1 condensate (z-score)” value was inactive: -0.035. `CC(O)(CS(=O)(=O)c1ccc(F)cc1)C(=O)Nc1ccc(C#N)c(C(F)(F)F)c1` (configuration not stated) [Bicalutamide] was tested, and the “light-induced TopBP1 condensate (z-score)” value was inactive: -0.649. For `CCOC(=O)c1cncn1[C@H](C)c1ccccc1` [Etomidate], the “light-induced TopBP1 condensate (z-score)” value was inactive: 0.346. For `Oc1ccc(Cl)cc1Cc1cc(Cl)ccc1O` [Dichlorophen], the “light-induced TopBP1 condensate (z-score)” value was inactive: -0.287. With `CCCC(C)(COC(N)=O)COC(=O)NC(C)C` (configuration not stated) [Carisoprodol] the “light-induced TopBP1 condensate (z-score)” value was inactive: 0.417. In the case of `CCC1(C)CC(=O)NC(=O)C1` [Bemegride], the “light-induced TopBP1 condensate (z-score)” value is reported as inactive: -0.511. With `C[N+]1(C)CCCC(OC(=O)C(O)(c2ccccc2)c2ccccc2)C1` (configuration not stated) [Mepenzolate bromide] the “light-induced TopBP1 condensate (z-score)” value was inactive: 1.82. In the case of `OC(c1ccccc1)(c1ccccc1)C1CCNCC1` [Azacyclonol], the “light-induced TopBP1 condensate (z-score)” value is reported as inactive: 0.431. `NC(=O)OCCCc1ccccc1` [Phenprobamate] was tested, and the “light-induced TopBP1 condensate (z-score)” value was inactive: -1.69. In the case of `O=C(CCCN1CCC(n2c(=O)[nH]c3ccccc32)CC1)c1ccc(F)cc1` [Benperidol], the “light-induced TopBP1 condensate (z-score)” value is reported as inactive: 0.468. `C=CCC1(CC(C)C)C(=O)NC(=O)NC1=O` [Butalbital] was tested, and the “light-induced TopBP1 condensate (z-score)” value was inactive: 0.276. `C[C@@H]1CN([C@H]2CC[C@](C#N)(c3ccc(F)cc3)CC2)CC[C@]1(C(=O)O)c1ccccc1` [Levocabastine hydrochloride] was tested, and the “light-induced TopBP1 condensate (z-score)” value was inactive: -0.0572. In the case of `COc1ccc(OC)c(C(O)C(C)N)c1` (configuration not stated) [Methoxamine hydrochloride], the “light-induced TopBP1 condensate (z-score)” value is reported as inactive: 0.164. In the case of `CCC(=O)O[C@H]1CC[C@H]2[C@@H]3CCC4=CC(=O)CC[C@]4(C)[C@H]3CC[C@]12C` [Testosterone propionate], the “light-induced TopBP1 condensate (z-score)” value is reported as inactive: -0.531.
